# In the supplement of paper PMC10037445:
# Several values for one entry are separate records, joined by “and”; a condition that tells them apart may be missing. Equal entries are not always repeated. Over roughly 2,900 compounds, “NF-kB SEAP reporter activity, fold change vs agonist alone” has its median near 0.99; the highest 2% begin near 2.6. The list shows a part of the results.
# Experiments:
# [1] = system: RAW-Dual; assay: NF-kB SEAP reporter activity, fold change vs agonist alone; higher = enhanced NF-kB activity
# Method in brief: (§1)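 Supernatant from RAW-Dual macrophages was read after 20 hours for IRF by QuantiLuc luminescence and for NF-κB by QuantiBlue absorbance at 620 nm. The cells (50,000 cells/well in DMEM, 384-well plates, 37 °C, 5% CO2) had received 50 nL of library stock by pin tool and, 1 h later, a PRR agonist. Reporter activity is expressed relative to agonist-alone wells as fold change, and wells were flagged cytotoxic if IncuCyte confluency was under 70% of agonist controls in both mask sets.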
# [2] = system: RAW-Dual; assay: NF-kB SEAP reporter activity, fold change vs agonist alone; cytotoxicity flag (confluency mask): not cytotoxic; higher = enhanced NF-kB activity
# Method in brief: as §1
# [3] = system: RAW-Dual; assay: NF-kB SEAP reporter activity, fold change vs agonist alone; cytotoxicity flag (confluency mask): cytotoxic (confluency <70% of control); higher = enhanced NF-kB activity
# Method in brief: as §1
# [4] = library stock concentration (final ~1000-fold dilution): 10 mM, cytotoxicity flag (confluency mask): not cytotoxic, agonist: Imiquimod (TLR7) […]
# [5] = library stock concentration (final ~1000-fold dilution): 10 mM, cytotoxicity flag (confluency mask): not cytotoxic, agonist: MPLA (TLR4) […]
# [6] = agonist: ODN 1826 (TLR9) 0.5 ug/mL
# [7] = agonist: Pam2CSK4 (TLR2/6) 0.1 ug/mL
# [8] = agonist: Pam3CSK4 (TLR2/1) 0.1 ug/mL
# [9] = library stock concentration (final ~1000-fold dilution): 10 mM water, cytotoxicity flag (confluency mask): not cytotoxic, agonist: Imiquimod (TLR7) […]
# [10] = library stock concentration (final ~1000-fold dilution): 10 mM water, cytotoxicity flag (confluency mask): not cytotoxic, agonist: MPLA (TLR4) […]
compound,measurement,setting,value
O=C(O)c1ccc(Nc2ncc3c(n2)-c2ccc(Cl)cc2C(c2c(F)cccc2F)=NC3)cc1,NF-kB SEAP reporter activity,[1]; [4],0.802
same,NF-kB SEAP reporter activity,[1]; [5],0.938
O=C(O)c1ccc(Nc2ncc3c(n2)-c2ccc(Cl)cc2C(c2c(F)cccc2F)=NC3)cc1 (library stock concentration (final ~1000-fold dilution): 10 mM),NF-kB SEAP reporter activity,[2]; agonist: LPS (TLR4) 0.1 ug/mL,0.705
same,NF-kB SEAP reporter activity,[2]; [6],0.681
same,NF-kB SEAP reporter activity,[2]; [7],0.555
same,NF-kB SEAP reporter activity,[2]; [8],0.734
CCn1cc(-c2ccnc3[nH]c(-c4cccc(CN(C)C)c4)cc23)c(-c2ccc(NC(=O)N(C)C)cc2)n1,NF-kB SEAP reporter activity,[1]; [4],3.13
same,NF-kB SEAP reporter activity,[1]; [5],2.67
CCn1cc(-c2ccnc3[nH]c(-c4cccc(CN(C)C)c4)cc23)c(-c2ccc(NC(=O)N(C)C)cc2)n1 (library stock concentration (final ~1000-fold dilution): 10 mM),NF-kB SEAP reporter activity,[2]; agonist: LPS (TLR4) 0.1 ug/mL,6.43
same,NF-kB SEAP reporter activity,[2]; [6],0.432
same,NF-kB SEAP reporter activity,[2]; [7],1.83
same,NF-kB SEAP reporter activity,[2]; [8],3.76
CCC(=O)NS(=O)(=O)c1ccc(-c2c(-c3ccccc3)noc2C)cc1 (library stock concentration (final ~1000-fold dilution): 10 mM),NF-kB SEAP reporter activity,[2]; agonist: LPS (TLR4) 0.1 ug/mL,1.03 and 1.09
same,NF-kB SEAP reporter activity,[2]; [6],1.01 and 0.952
same,NF-kB SEAP reporter activity,[2]; [7],0.986 and 1.17
same,NF-kB SEAP reporter activity,[2]; [8],0.953 and 0.862
CCOc1ccn(-c2ccc(F)cc2)c(=O)c1C(=O)Nc1ccc(Oc2ccnc(N)c2Cl)c(F)c1 (library stock concentration (final ~1000-fold dilution): 10 mM),NF-kB SEAP reporter activity,[2]; agonist: LPS (TLR4) 0.1 ug/mL,0.469
same,NF-kB SEAP reporter activity,[2]; [6],0.556
same,NF-kB SEAP reporter activity,[2]; [7],0.22
same,NF-kB SEAP reporter activity,[2]; [8],0.362
CCOc1ccn(-c2ccc(F)cc2)c(=O)c1C(=O)Nc1ccc(Oc2ccnc(N)c2Cl)c(F)c1,NF-kB SEAP reporter activity,[1]; [4],0.67
same,NF-kB SEAP reporter activity,[1]; [5],0.669
O=C(O)CCC(=O)O.O=C(OC1CN2CCC1CC2)N1CCc2ccccc2C1c1ccccc1 (configuration not stated),NF-kB SEAP reporter activity,[1]; [9],0.357
same,NF-kB SEAP reporter activity,[1]; [10],1.25
O=C(O)CCC(=O)O.O=C(OC1CN2CCC1CC2)N1CCc2ccccc2C1c1ccccc1 (configuration not stated) (library stock concentration (final ~1000-fold dilution): 10 mM water),NF-kB SEAP reporter activity,[2]; agonist: LPS (TLR4) 0.1 ug/mL,1.12
same,NF-kB SEAP reporter activity,[2]; [6],0.564
same,NF-kB SEAP reporter activity,[2]; [7],0.782
same,NF-kB SEAP reporter activity,[2]; [8],0.957
COc1ccnc(CS(=O)c2nc3ccc(-n4cccc4)cc3[nH]2)c1C (configuration not stated) (library stock concentration (final ~1000-fold dilution): 10 mM),NF-kB SEAP reporter activity,[2]; agonist: LPS (TLR4) 0.1 ug/mL,0.809
same,NF-kB SEAP reporter activity,[2]; [6],0.974
same,NF-kB SEAP reporter activity,[2]; [7],0.793
same,NF-kB SEAP reporter activity,[2]; [8],0.885
COc1ccnc(CS(=O)c2nc3ccc(-n4cccc4)cc3[nH]2)c1C (configuration not stated),NF-kB SEAP reporter activity,[1]; [4],1.05
same,NF-kB SEAP reporter activity,[1]; [5],0.891
CCN(CC)CCN(Cc1ccc(-c2ccc(C(F)(F)F)cc2)cc1)C(=O)Cn1c(SCc2ccc(F)cc2)nc(=O)c2c1CCC2 (library stock concentration (final ~1000-fold dilution): 10 mM),NF-kB SEAP reporter activity,[3]; agonist: LPS (TLR4) 0.1 ug/mL,0.18
same,NF-kB SEAP reporter activity,[3]; [6],0.18
same,NF-kB SEAP reporter activity,[3]; [7],0.0717
same,NF-kB SEAP reporter activity,[3]; [8],0.141
CCN(CC)CCN(Cc1ccc(-c2ccc(C(F)(F)F)cc2)cc1)C(=O)Cn1c(SCc2ccc(F)cc2)nc(=O)c2c1CCC2,NF-kB SEAP reporter activity,"[1]; library stock concentration (final ~1000-fold dilution): 10 mM, cytotoxicity flag (confluency mask): cytotoxic (confluency <70% of control), agonist: Imiquimod (TLR7) […]",0.14
same,NF-kB SEAP reporter activity,"[1]; library stock concentration (final ~1000-fold dilution): 10 mM, cytotoxicity flag (confluency mask): cytotoxic (confluency <70% of control), agonist: MPLA (TLR4) […]",0.249
O=C(O[C@@H]1Cc2c(O)cc(O)cc2O[C@@H]1c1cc(O)c(O)c(O)c1)c1cc(O)c(O)c(O)c1 (library stock concentration (final ~1000-fold dilution): 10 mM),NF-kB SEAP reporter activity,[2]; agonist: LPS (TLR4) 0.1 ug/mL,1.49
same,NF-kB SEAP reporter activity,[2]; [6],0.756
same,NF-kB SEAP reporter activity,[2]; [7],1.12
same,NF-kB SEAP reporter activity,[2]; [8],0.712
O=C(O[C@@H]1Cc2c(O)cc(O)cc2O[C@@H]1c1cc(O)c(O)c(O)c1)c1cc(O)c(O)c(O)c1,NF-kB SEAP reporter activity,[1]; [4],0.341
same,NF-kB SEAP reporter activity,[1]; [5],0.676
COC(=O)c1ccc2c(c1)NC(=O)/C2=C(\Nc1ccc(N(C)C(=O)CN2CCN(C)CC2)cc1)c1ccccc1 (library stock concentration (final ~1000-fold dilution): 10 mM),NF-kB SEAP reporter activity,[2]; agonist: LPS (TLR4) 0.1 ug/mL,1.63
same,NF-kB SEAP reporter activity,[2]; [6],0.674
same,NF-kB SEAP reporter activity,[2]; [7],1.05
same,NF-kB SEAP reporter activity,[2]; [8],1.58
COC(=O)c1ccc2c(c1)NC(=O)/C2=C(\Nc1ccc(N(C)C(=O)CN2CCN(C)CC2)cc1)c1ccccc1,NF-kB SEAP reporter activity,[1]; [4],1.29
same,NF-kB SEAP reporter activity,[1]; [5],1.33
Oc1ccc(Nc2nc(-c3ccc(Cl)cc3)cs2)cc1 (library stock concentration (final ~1000-fold dilution): 10 mM),NF-kB SEAP reporter activity,[2]; agonist: LPS (TLR4) 0.1 ug/mL,0.311
same,NF-kB SEAP reporter activity,[2]; [6],0.27
same,NF-kB SEAP reporter activity,[2]; [7],0.227
same,NF-kB SEAP reporter activity,[2]; [8],0.157
Oc1ccc(Nc2nc(-c3ccc(Cl)cc3)cs2)cc1,NF-kB SEAP reporter activity,[1]; [4],0.665
same,NF-kB SEAP reporter activity,[1]; [5],0.836
N#Cc1ccc2[nH]c(O)c(-c3ccc(CN4CCOCC4)cn3)c2c1,NF-kB SEAP reporter activity,[1]; [4],0.975
same,NF-kB SEAP reporter activity,[1]; [5],0.952
N#Cc1ccc2[nH]c(O)c(-c3ccc(CN4CCOCC4)cn3)c2c1 (library stock concentration (final ~1000-fold dilution): 10 mM),NF-kB SEAP reporter activity,[2]; agonist: LPS (TLR4) 0.1 ug/mL,1.06
same,NF-kB SEAP reporter activity,[2]; [6],0.902
same,NF-kB SEAP reporter activity,[2]; [7],0.934
same,NF-kB SEAP reporter activity,[2]; [8],0.805
Nc1nc(NC2CC2)c2ncn(C3C=CC(CO)C3)c2n1.Nc1nc(NC2CC2)c2ncn(C3C=CC(CO)C3)c2n1.O=S(=O)(O)O (configuration not stated),NF-kB SEAP reporter activity,[1]; [9],1.04
same,NF-kB SEAP reporter activity,[1]; [10],1.07
Nc1nc(NC2CC2)c2ncn(C3C=CC(CO)C3)c2n1.Nc1nc(NC2CC2)c2ncn(C3C=CC(CO)C3)c2n1.O=S(=O)(O)O (configuration not stated) (library stock concentration (final ~1000-fold dilution): 10 mM water),NF-kB SEAP reporter activity,[2]; agonist: LPS (TLR4) 0.1 ug/mL,1.22
same,NF-kB SEAP reporter activity,[2]; [6],1.21
same,NF-kB SEAP reporter activity,[2]; [7],1.31
same,NF-kB SEAP reporter activity,[2]; [8],1.18
CCNC1CN(CCCOC)S(=O)(=O)c2sc(S(N)(=O)=O)cc21 (configuration not stated),NF-kB SEAP reporter activity,[1]; [4],1.1
same,NF-kB SEAP reporter activity,[1]; [5],1.07
